Experimental data published in the supplement of paper PMC8728848.
The list shows a part of the results.

Columns and labels:
Assay in all cases: glycan array binding signal (z-score within array); higher = stronger binding
Details in all cases: glycan notation: IUPAC condensed, linker removed
[1] = biological target: Fuc(a1-2)[GalNAc(a1-3)]Gal(b1-3)GalNAc(a1-3)[Fuc(a1-2)]Gal(b1-4)GlcNAc
Summary of the method: (§1)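 Negative Z-scores can be read as non-binding. The Z-score is calculated within each array and then averaged across arrays of one protein sequence at different concentrations or buffers and across linkers. Arrays, 3228 in all, were curated from the Consortium for Functional Glycomics database and kept only where the protein sequence was available.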

[2] = biological target: Fuc(a1-2)[GalNAc(a1-3)]Gal(b1-3)GalNAc(b1-3)Gal(a1-4)Gal(b1-4)Glc
Summary of the method: as §1

[3] = biological target: Fuc(a1-2)[GalNAc(a1-3)]Gal(b1-3)GlcNAc
Summary of the method: as §1

[4] = biological target: Fuc(a1-2)[GalNAc(a1-3)]Gal(b1-3)GlcNAc(b1-2)Man(a1-3)[Fuc(a1-2)[GalNAc(a1-3)]Gal(b1-3)GlcNAc(b1-2)Man(a1-6)]Man(b1-4)GlcNAc(b1-4)GlcNAc
Summary of the method: as §1

[5] = biological target: Fuc(a1-2)[GalNAc(a1-3)]Gal(b1-3)GlcNAc(b1-2)Man(a1-3)[Fuc(a1-2)[GalNAc(a1-3)]Gal(b1-3)GlcNAc(b1-2)Man(a1-6)]Man(b1-4)GlcNAc(b1-4)[Fuc(a1-6)]GlcNAc
Summary of the method: as §1

[6] = biological target: Fuc(a1-2)[GalNAc(a1-3)]Gal(b1-3)GlcNAc(b1-3)GalNAc
Summary of the method: as §1

[7] = biological target: Fuc(a1-2)[GalNAc(a1-3)]Gal(b1-3)GlcNAc(b1-6)GalNAc
Summary of the method: as §1

[8] = biological target: Fuc(a1-2)[GalNAc(a1-3)]Gal(b1-4)Glc
Summary of the method: as §1

[9] = biological target: Fuc(a1-2)[GalNAc(a1-3)]Gal(b1-4)GlcNAc
Summary of the method: as §1

[10] = biological target: Fuc(a1-2)[GalNAc(a1-3)]Gal(b1-4)GlcNAc(b1-2)Man
Summary of the method: as §1

[11] = biological target: Fuc(a1-2)[GalNAc(a1-3)]Gal(b1-4)GlcNAc(b1-2)Man(a1-3)[Fuc(a1-2)[GalNAc(a1-3)]Gal(b1-4)GlcNAc(b1-2)Man(a1-6)]Man(b1-4)GlcNAc(b1-4)GlcNAc
Summary of the method: as §1

[12] = biological target: Fuc(a1-2)[GalNAc(a1-3)]Gal(b1-4)GlcNAc(b1-2)Man(a1-3)[Fuc(a1-2)[GalNAc(a1-3)]Gal(b1-4)GlcNAc(b1-2)Man(a1-6)]Man(b1-4)GlcNAc(b1-4)[Fuc(a1-6)]GlcNAc
Summary of the method: as §1

[13] = biological target: Fuc(a1-2)[GalNAc(a1-3)]Gal(b1-4)GlcNAc(b1-2)Man(a1-3)[GalNAc(a1-3)[Fuc(a1-2)]Gal(b1-4)GlcNAc(b1-2)Man(a1-6)]Man(b1-4)GlcNAc(b1-4)GlcNAc
Summary of the method: as §1

[14] = biological target: Fuc(a1-2)[GalNAc(a1-3)]Gal(b1-4)GlcNAc(b1-3)Gal(b1-4)GlcNAc
Summary of the method: as §1

[15] = biological target: Fuc(a1-2)[GalNAc(a1-3)]Gal(b1-4)GlcNAc(b1-3)Gal(b1-4)GlcNAc(b1-3)Gal(b1-4)GlcNAc
Summary of the method: as §1

[16] = biological target: Fuc(a1-2)[GalNAc(a1-3)]Gal(b1-4)GlcNAc(b1-3)GalNAc
Summary of the method: as §1

[17] = biological target: Fuc(a1-2)[GalNAc(a1-3)]Gal(b1-4)GlcNAc(b1-3)[Fuc(a1-2)[GalNAc(a1-3)]Gal(b1-4)GlcNAc(b1-6)]GalNAc
Summary of the method: as §1

[18] = biological target: Fuc(a1-2)[GalNAc(a1-3)]Gal(b1-4)GlcNAc(b1-6)GalNAc
Summary of the method: as §1

[19] = biological target: Fuc(a1-2)[GalNAc(a1-3)]Gal(b1-4)[Fuc(a1-3)]GlcNAc
Summary of the method: as §1

[20] = biological target: Fuc(a1-2)[GalNAc(a1-3)]Gal(b1-4)[Fuc(a1-3)]GlcNAc(b1-3)GalNAc
Summary of the method: as §1

[21] = biological target: Fuc(a1-2)[GalNAc(a1-4)]Gal(b1-4)GlcNAc
Summary of the method: as §1

[22] = biological target: Fuc(a1-2)[GalNAc(b1-3)]Gal
Summary of the method: as §1

Fuc(a1-3)GlcNAc = biological target: Fuc(a1-3)GlcNAc
Summary of the method: as §1

[23] = biological target: Fuc(a1-3)[Gal(b1-4)]Glc6S
Summary of the method: as §1

[24] = biological target: Fuc(a1-3)[Gal(b1-4)]GlcNAc
Summary of the method: as §1

[25] = biological target: Fuc(a1-3)[Gal(b1-4)]GlcNAc(b1-2)Man
Summary of the method: as §1

[26] = biological target: Fuc(a1-3)[Gal(b1-4)]GlcNAc(b1-2)Man(a1-3)[Fuc(a1-3)[Gal(b1-4)]GlcNAc(b1-2)Man(a1-6)]Man(b1-4)GlcNAc(b1-4)GlcNAc
Summary of the method: as §1

[27] = biological target: Fuc(a1-3)[Gal(b1-4)]GlcNAc(b1-2)Man(a1-3)[Fuc(a1-3)[Gal(b1-4)]GlcNAc(b1-2)Man(a1-6)]Man(b1-4)GlcNAc(b1-4)[Fuc(a1-6)]GlcNAc
Summary of the method: as §1

[28] = biological target: Fuc(a1-3)[Gal(b1-4)]GlcNAc(b1-2)Man(a1-6)[Gal(b1-4)GlcNAc(b1-2)Man(a1-3)]Man(b1-4)GlcNAc(b1-4)GlcNAc
Summary of the method: as §1

[29] = biological target: Fuc(a1-3)[Gal(b1-4)]GlcNAc(b1-3)Gal(b1-3)[Fuc(a1-4)]GlcNAc
Summary of the method: as §1

[30] = biological target: Fuc(a1-3)[Gal(b1-4)]GlcNAc(b1-3)Gal(b1-4)[Fuc(a1-3)]GlcNAc
Summary of the method: as §1

[31] = biological target: Fuc(a1-3)[Gal(b1-4)]GlcNAc(b1-3)Gal(b1-4)[Fuc(a1-3)]GlcNAc(b1-3)Gal(b1-4)[Fuc(a1-3)]GlcNAc
Summary of the method: as §1

[32] = biological target: Fuc(a1-3)[Gal(b1-4)]GlcNAc(b1-3)GalNAc
Summary of the method: as §1

[33] = biological target: Fuc(a1-3)[Gal(b1-4)]GlcNAc(b1-4)Gal(b1-4)[Fuc(a1-3)]GlcNAc
Summary of the method: as §1

[34] = biological target: Fuc(a1-3)[Gal(b1-4)]GlcNAc(b1-4)Gal(b1-4)[Fuc(a1-3)]GlcNAc(b1-4)Gal(b1-4)[Fuc(a1-3)]GlcNAc
Summary of the method: as §1

[35] = biological target: Fuc(a1-3)[Gal(b1-4)]GlcNAc(b1-6)GalNAc
Summary of the method: as §1

[36] = biological target: Fuc(a1-3)[Gal(b1-4)]GlcNAc(b1-6)[Gal(b1-3)GlcNAc(b1-3)]Gal(b1-4)Glc
Summary of the method: as §1

[37] = biological target: Fuc(a1-3)[Gal(b1-4)]GlcNAc6S
Summary of the method: as §1

[38] = biological target: Fuc(a1-3)[Gal3S(b1-4)]Glc
Summary of the method: as §1

[39] = biological target: Fuc(a1-3)[Gal3S(b1-4)]Glc6S
Summary of the method: as §1

[40] = biological target: Fuc(a1-3)[Gal3S(b1-4)]GlcNAc
Summary of the method: as §1

[41] = biological target: Fuc(a1-3)[Gal3S(b1-4)]GlcNAc6S
Summary of the method: as §1

[42] = biological target: Fuc(a1-3)[GalNAc(b1-4)]GlcNAc
Summary of the method: as §1

[43] = biological target: Fuc(a1-3)[GalNAc(b1-4)]GlcNAc6S
Summary of the method: as §1

[44] = biological target: Fuc(a1-3)[Neu5Ac(a2-3)]Gal(b1-4)GlcNAc(b1-3)GalNAc
Summary of the method: as §1

B1: GNA (Galanthus nivalis), P30617 (protein)
chain: MAKASLLILAAIFLGVITPSCLSDNILYSGETLSTGEFLNYGSFVFIMQEDCNLVLYDVDKPIWATNTGGLSRSCFLSMQTDGNLVVYNPSNKPIWASNTGGQNGNYVCILQKDRNVVIYGTDRWATGTHTGLVGIPASPPSEKYPTAGKIKLVTAK
Q: Which “glycan array binding signal (z-score)” value [1] does the source give for B1 here?
A: -0.159

Q: What about the “glycan array binding signal (z-score)” value [2] of the same binder?
A: -0.174

Q: And the “glycan array binding signal (z-score)” value [3]?
A: -0.207

Q: And the “glycan array binding signal (z-score)” value [4]?
A: -0.127

Q: What about the “glycan array binding signal (z-score)” value [5] of the same binder?
A: 0.259

Q: What about the “glycan array binding signal (z-score)” value [6] of the same binder?
A: -0.168

Q: And the “glycan array binding signal (z-score)” value [7]?
A: -0.18

Q: What about the “glycan array binding signal (z-score)” value [8] of the same binder?
A: -0.22

Q: What about the “glycan array binding signal (z-score)” value [9] of the same binder?
A: -0.246

Q: What about the “glycan array binding signal (z-score)” value [10] of the same binder?
A: -0.17

Q: What about the “glycan array binding signal (z-score)” value [11] of the same binder?
A: -0.12

Q: And the “glycan array binding signal (z-score)” value [12]?
A: 0.348

Q: And the “glycan array binding signal (z-score)” value [13]?
A: -0.118

Q: And the “glycan array binding signal (z-score)” value [14]?
A: -0.22

Q: And the “glycan array binding signal (z-score)” value [15]?
A: -0.127

Q: And the “glycan array binding signal (z-score)” value [16]?
A: -0.155

Q: And the “glycan array binding signal (z-score)” value [17]?
A: -0.182

Q: And the “glycan array binding signal (z-score)” value [18]?
A: -0.175

Q: And the “glycan array binding signal (z-score)” value [19]?
A: -0.138

Q: What about the “glycan array binding signal (z-score)” value [20] of the same binder?
A: -0.117

Q: And the “glycan array binding signal (z-score)” value [21]?
A: -0.245

Q: And the “glycan array binding signal (z-score)” value [22]?
A: -0.188

Q: And the “glycan array binding signal (z-score)” value (Fuc(a1-3)GlcNAc)?
A: -0.203

Q: And the “glycan array binding signal (z-score)” value [23]?
A: -0.095

Q: And the “glycan array binding signal (z-score)” value [24]?
A: -0.098

Q: What about the “glycan array binding signal (z-score)” value [25] of the same binder?
A: -0.173

Q: And the “glycan array binding signal (z-score)” value [26]?
A: -0.111

Q: And the “glycan array binding signal (z-score)” value [27]?
A: -0.141

Q: And the “glycan array binding signal (z-score)” value [28]?
A: -0.666

Q: What about the “glycan array binding signal (z-score)” value [29] of the same binder?
A: -0.219

Q: What about the “glycan array binding signal (z-score)” value [30] of the same binder?
A: -0.167

Q: And the “glycan array binding signal (z-score)” value [31]?
A: -0.176

Q: And the “glycan array binding signal (z-score)” value [32]?
A: -0.158

Q: And the “glycan array binding signal (z-score)” value [33]?
A: -0.127

Q: And the “glycan array binding signal (z-score)” value [34]?
A: 0.029

Q: What about the “glycan array binding signal (z-score)” value [35] of the same binder?
A: -0.159

Q: And the “glycan array binding signal (z-score)” value [36]?
A: -0.165

Q: And the “glycan array binding signal (z-score)” value [37]?
A: -0.106

Q: And the “glycan array binding signal (z-score)” value [38]?
A: -0.158

Q: And the “glycan array binding signal (z-score)” value [39]?
A: 0.067

Q: And the “glycan array binding signal (z-score)” value [40]?
A: -0.009

Q: And the “glycan array binding signal (z-score)” value [41]?
A: -0.007

Q: And the “glycan array binding signal (z-score)” value [42]?
A: -0.208

Q: And the “glycan array binding signal (z-score)” value [43]?
A: -0.171

Q: What about the “glycan array binding signal (z-score)” value [44] of the same binder?
A: 0.284
